The source of these data is paper PMC10668032.

This is one part of the list. At the low end of the ranking the order means little.

The assay has as its target SIX1-Q177R homeodomain (UniProt Q15475). Briefly: universal protein binding microarray. The following applies: Universal all-10-mer PBM (8x60K, AMADID 030236), 300 nM GST-tagged protein, Alexa Fluor 488 anti-GST; buffer, salt, pH and temperature not stated; high values mean tight binding; most listed sequences are background and not binding sites; double strand, one strand shown.
For the sequence AGATTAGC, the binding signal was -0.297 E-score. The value for CAACGAGA was -0.177 E-score; that for ACACGCAC was 0.405 E-score; that for GGCGCACA was 0.0588 E-score. The value for AGTGGTAC was -0.00249 E-score. As for CCGCCCGA, the figure is 0.174 E-score. As for ATCTATGG, the binding signal was -0.271 E-score.

As to CTAATGTA, the binding signal is -0.111 E-score.

For GCACTGGA, the binding signal was -0.108 E-score. As for ATAGGACA, the figure is 0.0691 E-score. As for ACTGGGGC, the figure is -0.203 E-score; as for AGAGTGCC, -0.242 E-score.

AGTAGGGC: the binding signal was 0.0368 E-score. The value for CACCCTGG was 0.315 E-score; that for CACACTCA was 0.21 E-score; that for CATCAATA was -0.0687 E-score.

Consider ACCACGGC, for which the binding signal is -0.0946 E-score. Turning to CTCCGAGC, the binding signal was 0.0411 E-score. Consider ATCTATTC, for which the binding signal was -0.0709 E-score.

As to AGTCTGGC, the binding signal was -0.192 E-score.

On to ACACATGA, for which the binding signal stood at 0.132 E-score.

As to GTCTAGGA, the binding signal is -0.114 E-score. As for AGGCGCAC, the figure is -0.0554 E-score; as for GAGCTCCC, -0.129 E-score; as for GGTTAAAA, 0.0283 E-score.

Turning to ATAGATGA, the binding signal is -0.0212 E-score. As for AGGTGTAT, the binding signal came to 0.441 E-score. Consider AGCCCTCC, for which the binding signal came to 0.00655 E-score. The value for AGTTCGAG was 0.0214 E-score; that for GGCAAAGA was -0.291 E-score; that for GCGGATAA was 0.162 E-score.

Consider CCCGGACG, for which the binding signal amounted to 0.165 E-score. The value for CGAAGGTA was 0.0165 E-score; that for ATAGCCAC was -0.202 E-score. The value for CCTTAAAC was 0.0384 E-score; that for CTGCGCGC was 0.0164 E-score; that for ACGTCTGC was -0.115 E-score. As for AAAGTGAT, the figure is -0.0242 E-score; as for CCCCATGC, 0.201 E-score; as for GTAGTCAC, 0.0921 E-score. Take GACTTCGA: the binding signal is -0.311 E-score. The value for AGGGTAGA was 0.0482 E-score; that for CCCACTTA was -0.0803 E-score; that for AGACACTG was 0.341 E-score.

As for GTATGCAC, the binding signal was determined as 0.117 E-score. Regarding CAGCCTTC, the binding signal is -0.332 E-score.

In the case of CCGCGCAC, the binding signal amounted to 0.149 E-score. For AGATCCAT, the binding signal was -0.198 E-score. As for CGGGTACG, the figure is 0.182 E-score; as for ATATCATC, -0.134 E-score. Turning to AAGGATTA, the binding signal was -0.00536 E-score.

For the sequence AGCCCGGA, the binding signal came to 0.00594 E-score. For the sequence CACGTGCC, the binding signal stood at 0.225 E-score.

For AAATACAT, the binding signal is -0.17 E-score. For ATATCATG, the binding signal was -0.132 E-score. Take AAAGTAAC: the binding signal is -0.172 E-score.

As for CGCTAAGA, the binding signal came out at 0.111 E-score.

Consider ATATCAGC, for which the binding signal is -0.182 E-score. As for TGTGCGAA, the figure is -0.0466 E-score. For the sequence GGATCCCA, the binding signal turned out to be 0.235 E-score. As for AACAGGCA, the figure is -0.178 E-score. As for CTGCCGTA, the figure is -0.126 E-score; as for GGGGGACA, 0.116 E-score; as for CCGAGAGC, -0.109 E-score. As for TACACCAA, the figure is 0.475 E-score; as for ACGCTGAG, -0.0156 E-score. On to AGGCATAC, for which the binding signal is -0.0952 E-score. As for CTGTCTGC, the figure is -0.0663 E-score; as for AACTTGGG, -0.204 E-score.

With TTCGAAAA, the binding signal is -0.0447 E-score. As for CAGTCGTC, the figure is -0.309 E-score. The value for GAGTCTGC was -0.119 E-score.

With TAATGCTA, the binding signal was -0.119 E-score. The value for GTGGTATA was 0.153 E-score; that for GTACGAGA was -0.135 E-score; that for CCCATAGC was -0.119 E-score. As for GAGGACGA, the figure is 0.0238 E-score.

Consider CATAGTGC, for which the binding signal was -0.134 E-score. The value for AGCTAGGA was -0.212 E-score; that for CTGAGATA was -0.0701 E-score.

Turning to CGTATTCC, the binding signal turned out to be 0.0818 E-score. The value for AGAATTCT was -0.0421 E-score. As for GGCGGCCC, the figure is -0.215 E-score. As for ACGTCGCT, the figure is -0.158 E-score; as for ATTCATGC, 0.00265 E-score; as for CTACGGGA, 0.122 E-score. For the sequence CCGGCCGG, the binding signal stood at 0.0511 E-score.

Regarding CTCTCATA, the binding signal was -0.0324 E-score.

Regarding AACCCTAA, the binding signal worked out at 0.0778 E-score. With CAGCCGAG, the binding signal is -0.147 E-score. The value for CCGTCAAA was -0.128 E-score; that for CGATGCAG was -0.054 E-score; that for ATGTTCGC was -0.213 E-score. As for ACAGTTAC, the figure is -0.0385 E-score.

Consider CCCGTCAG, for which the binding signal worked out at 0.072 E-score. With CCCAGTCG, the binding signal is -0.117 E-score. The value for AGATAGGC was -0.0723 E-score; that for CGTACTGA was -0.0164 E-score. The value for ATTAAATA was -0.0373 E-score. As for ATATAAAT, the figure is -0.0705 E-score; as for TACACCTA, 0.47 E-score. Regarding CGCGCCTC, the binding signal came out at 0.0623 E-score. The value for CCGCGTGC was 0.0465 E-score; that for GAGGCCAA was -0.117 E-score; that for ATACAGCA was -0.0433 E-score. With CATACAAC, the binding signal is -0.0671 E-score. The value for AGAACGCC was -0.0645 E-score. The value for GATTGTCC was -0.109 E-score; that for CGCACTGA was -0.0399 E-score; that for AGAAATTA was -0.183 E-score. As to GGTCTCCA, the binding signal is -0.135 E-score.

Regarding CTACCAGC, the binding signal was -0.0932 E-score. As for GCATTTCC, the figure is -0.141 E-score; as for AGGCGTAT, -0.0158 E-score; as for GGAGGATA, 0.0528 E-score. Turning to CGGTATCC, the binding signal is 0.325 E-score. As for AGTGTCTA, the figure is 0.372 E-score.

On to CCATTATA, for which the binding signal is -0.0138 E-score.

CTGGTAAC: the binding signal came to 0.0552 E-score. As for GGTCGACC, the figure is 0.136 E-score; as for CCACTTAG, -0.0567 E-score. As for ACGCATTA, the figure is -0.056 E-score. GAGCGCGC: the binding signal is -0.233 E-score.

On to AATAGCGA, for which the binding signal was 0.12 E-score. As to CCTCGATC, the binding signal is 0.0664 E-score. The value for GCAGAGAC was -0.201 E-score; that for GAGTGCCA was -0.0848 E-score; that for CAAAGGGC was -0.129 E-score. As to AGGAAAGC, the binding signal was -0.19 E-score.

Consider ACTTGGAT, for which the binding signal was determined as 0.116 E-score. As for CAACCATG, the figure is -0.015 E-score; as for AATTTAAT, -0.127 E-score. AAGGTAAA: the binding signal was -0.0807 E-score. The value for GCAAAAAC was -0.0384 E-score.

As for AGGGAAGC, the binding signal was -0.276 E-score. The value for CCCGGCGG was 0.127 E-score. Take CTTCTGGA: the binding signal is -0.103 E-score.

As for CGGAGCAG, the binding signal was 0.0446 E-score. As for CTAAACAG, the figure is -0.251 E-score; as for GAGTCGCA, 0.0152 E-score. Take CCGAACCG: the binding signal was 0.175 E-score. Regarding CTGTAGGA, the binding signal came to 0.081 E-score. As to CGAGTGCG, the binding signal was determined as 0.00816 E-score.

For the sequence ATTACTAA, the binding signal is -0.145 E-score. As for AAAGAAAT, the figure is -0.215 E-score. The value for CTTCCAGC was -0.262 E-score. As for GAAATGAA, the figure is -0.219 E-score; as for CATAGACA, 0.0872 E-score.

On to CTGAGCGA, for which the binding signal was -0.0334 E-score. The value for GAAGATGC was -0.159 E-score. The value for TACAGCAA was -0.0509 E-score. As for CCTGCCGC, the binding signal was -0.152 E-score. As to ATAGGCGA, the binding signal is -0.201 E-score. The value for ACCAAGAG was 0.213 E-score. The value for ATCCAGTC was 0.118 E-score; that for GGGAGGAA was -0.139 E-score.

As for CCACTGAG, the binding signal was found to be 0.131 E-score. The value for GAGTCGAA was 0.0854 E-score; that for CGGTCCAC was -0.218 E-score. The value for ACGCCTCA was 0.165 E-score; that for CAACTGTG was -0.0257 E-score. The value for GCACCTCC was 0.102 E-score; that for CTCCGCCA was -0.146 E-score. For the sequence CATAAGCG, the binding signal was -0.0888 E-score. The value for CTCTCGGA was -0.114 E-score; that for CTTGTATA was -0.0877 E-score; that for CTCAACAA was 0.09 E-score.

As to AGGCTTAG, the binding signal was -0.151 E-score. The value for ATTCATGA was -0.0959 E-score. As for ATCAGCCC, the figure is 0.0123 E-score; as for CTGTCACA, 0.0927 E-score. As to GAGTTCGA, the binding signal was 0.0107 E-score.
